The supplement of paper PMC4967469
Lines with a small IC50 respond at low doses; a fit beyond the top or the lowest dose is shown as a bound at that dose. For AUC the same curve is integrated over the 256-fold range of doses and scaled to a fraction; the more sensitive the line, the further below 1. The top dose, if marked as inferred, comes from the curve model; the source does not state it. For some of these results: Drugs with an entry number were screened twice under separate entries, and the two screens often disagree.

Tests used:
Assay in all cases: Viability of human cancer cell lines after 72 h of drug (GDSC screen)
[1] = compound: Cn1ncnc1[C@H]1c2n[nH]c(=O)c3cc(F)cc(c23)N[C@@H]1c1ccc(F)cc1 [BMN-673]; details: top dose 10 µM; top dose inferred
Procedure: (§1)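 Human cancer cell lines in 384-well plates, medium with 10% serum, drug for 72 h over a 256-fold dose range (nine 2-fold or five 4-fold steps up to the top dose). Adherent lines were fixed and stained with the nucleic acid dye Syto60, suspension lines read with resazurin; signal relative to control wells, capped at 0 and 100%. One two-parameter sigmoid per drug and line, fitted in a mixed model over all curves with the slope shared within a line.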

[2] = compound: NS(=O)(=O)OC[C@@H]1C[C@@H](n2ccc3c(N[C@H]4CCc5ccccc54)ncnc32)C[C@@H]1O [MLN4924]; details: top dose 1 µM; top dose inferred
Procedure: as §1

[3] = compound: Cc1cc([C@@H](C)Nc2ccccc2C(=O)O)c2nc(N3CCOCC3)cc(=O)n2c1 [AZD6482]
Procedure: as §1

[4] = top dose 5 µM, screen: GDSC drug entry 1066, top dose inferred
[5] = top dose 5.12 µM, screen: GDSC drug entry 156

Cell Line | AUC [1] | IC50 [1] | AUC [2] | IC50 [2] | AUC [3, 4] | IC50 [3, 4] | AUC [3, 5] | IC50 [3, 5]
EHEB (lymphoid neoplasm, suspension) | 0.847 | > 10 µM | 0.95 | > 1000 nM | 0.772 | 2890 nM | 0.741 | 2200 nM
EJM (lymphoid neoplasm, semi-adherent) | 0.992 | > 10 µM | 0.992 | > 1000 nM | 0.961 | > 5000 nM | 0.976 | > 5120 nM
EM-2 (chronic myeloid leukaemia, suspension) | 0.789 | 5.05 µM | 0.534 | 78.1 nM | 0.933 | > 5000 nM | 0.98 | > 5120 nM
ES7 (Ewing sarcoma, adherent) | 0.11 | < 0.0391 µM | 0.565 | 94.8 nM | 0.752 | 1700 nM | 0.597 | 593 nM
EW-3 (Ewing sarcoma, adherent) | 0.125 | < 0.0391 µM | 0.817 | 664 nM | 0.938 | > 5000 nM | 0.939 | > 5120 nM
EW-13 (Ewing sarcoma, suspension) | 0.919 | > 10 µM | 0.964 | > 1000 nM | 0.958 | > 5000 nM | 0.867 | > 5120 nM
EW-18 (Ewing sarcoma, suspension) | 0.934 | > 10 µM | 0.915 | > 1000 nM | 0.908 | > 5000 nM | 0.928 | > 5120 nM
FU97 (stomach, adherent) | 0.915 | > 10 µM | 0.912 | > 1000 nM | 0.596 | 579 nM | 0.713 | 1310 nM
FU-OV-1 (ovary, adherent) | 0.949 | > 10 µM | 0.977 | > 1000 nM | 0.913 | > 5000 nM | 0.71 | 1530 nM
G-292 Clone A141B1 (osteosarcoma, adherent) | 0.887 | > 10 µM | 0.88 | > 1000 nM | 0.72 | 1940 nM | 0.86 | > 5120 nM
G-361 (melanoma, adherent) | 0.938 | > 10 µM | 0.933 | > 1000 nM | 0.825 | 2840 nM | 0.775 | 1940 nM
G-402 (soft tissue, adherent) | 0.659 | 2.02 µM | 0.704 | 288 nM | 0.829 | 4650 nM | 0.66 | 1040 nM
GA-10 (Burkitt lymphoma, suspension) | 0.967 | > 10 µM | 0.922 | > 1000 nM | 0.818 | 2270 nM | 0.553 | 437 nM
GAMG (glioma, adherent) | 0.93 | > 10 µM | 0.798 | 505 nM | 0.665 | 920 nM | 0.798 | 2570 nM
GCT (soft tissue, adherent) | 0.665 | 1.73 µM | 0.468 | 51.6 nM | 0.893 | > 5000 nM | 0.95 | > 5120 nM
GDM-1 (acute myeloid leukaemia, suspension) | 0.969 | > 10 µM | 0.921 | > 1000 nM | 0.987 | > 5000 nM | 0.782 | 2050 nM
GOTO (neuroblastoma, adherent) | 0.26 | 0.116 µM | 0.654 | 178 nM | 0.945 | > 5000 nM | 0.969 | > 5120 nM
H4 (glioma, adherent) | 0.376 | 0.285 µM | 0.68 | 198 nM | 0.567 | 476 nM | 0.847 | 3700 nM
H2373 (mesothelioma, adherent) | 0.799 | 6.28 µM | 0.758 | 430 nM | 0.94 | > 5000 nM | 0.919 | > 5120 nM
H2818 (mesothelioma, adherent) | 0.976 | > 10 µM | 0.897 | > 1000 nM | 0.966 | > 5000 nM | 0.962 | > 5120 nM
H3255 (lung adenocarcinoma, adherent) | 0.885 | > 10 µM | 0.926 | > 1000 nM | 0.923 | > 5000 nM | 0.959 | > 5120 nM
HA7-RCC (kidney, adherent) | 0.674 | 2.03 µM | 0.578 | 104 nM | 0.855 | 4650 nM | 0.969 | > 5120 nM
HAL-01 (lymphoblastic leukaemia, suspension) | 0.383 | 0.311 µM | 0.988 | > 1000 nM | 0.547 | 414 nM | 0.723 | 1260 nM
HC-1 (hairy cell leukaemia, suspension) | 0.677 | 1.91 µM | 0.753 | 322 nM | 0.964 | > 5000 nM | 0.826 | 2930 nM
HCC1143 (breast, adherent) | 0.905 | > 10 µM | 0.9 | > 1000 nM | 0.94 | > 5000 nM | 0.915 | > 5120 nM
HCC1187 (breast, suspension) | 0.973 | > 10 µM | 0.7 | 221 nM | 0.983 | > 5000 nM | 0.983 | > 5120 nM
HCC1500 (breast, adherent) | 0.987 | > 10 µM | 0.987 | > 1000 nM | 0.955 | > 5000 nM | 0.955 | > 5120 nM
HCC-44 (lung adenocarcinoma, adherent) | 0.504 | 0.641 µM | 0.542 | 81 nM | 0.666 | 897 nM | 0.935 | > 5120 nM
HCC-827 (lung adenocarcinoma, adherent) | 0.952 | > 10 µM | 0.973 | > 1000 nM |  |  | 0.923 | > 5120 nM
HD-MY-Z (Hodgkin lymphoma, adherent) | 0.611 | 1.27 µM | 0.649 | 162 nM | 0.956 | > 5000 nM | 0.986 | > 5120 nM
